The supplement of paper PMC11417369
± gives the standard deviation of the averaged measurements. Some of the results follow.

System: PfAP2-EXP AP2 domain (GST-tagged)
Assay: gcPBM binding intensity (ln(normalized median fluorescence intensity)); higher = stronger DNA binding
Outline: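 GST-tagged P. falciparum DNA-binding domains, expressed in E. coli (about 25 μg on average), were applied for 1 h to an Agilent 4 × 180k array of primer-extended double-stranded 36-bp intergenic genomic probes plus negative controls. The binding buffer was 1× PBS with 1% milk, 0.2 mg/ml BSA, 0.5% salmon testes DNA and 0.03% Triton X-100. Bound protein was detected with Alexa488 anti-GST antibody and scanned at 488 nm. Binding intensity is the highest Masliner-normalised natural-log median intensity across replicate spots of either probe orientation.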

Sequence	gcPBM binding intensity (ln)
ATATTATTTATAAGTTGTACGGTATAATATAATATA [XGTACX_site5371]	8.52 ± 0.41
GTTCAAAATATGAACACACACATATATATATATATA [CACACA_site2057]	10.2 ± 0.51
TTTCGTAATATGCGTGTGCACAATGAGTCCATATCT	8.96 ± 0.23
ATCTACATATATTATTGTACATTGTTAAAAATTTAT [XGTACX_site7769]	8.58 ± 0.34
TAAAATATAATTAGCACACATATATAAAATATATAT [CACACA_site4093]	8.22 ± 0.3
TTTTTTTTTTTTTGGGGTACATTTTAATTAATATTA [XGTACX_site4866]	8.56 ± 0.71
ATATATTGTATGTGCTCACACATGTTTCGATATTAT [CACACA_site4336]	8.65 ± 0.35
GTTGTTTCTATAAATTGTACTTAAATATAATTATAT [XGTACX_site585]	8.86 ± 0.26
GTAAATATGTTTATTAGTACACATATGAAAATAAAT [XGTACX_site5820]	8.78 ± 0.41
AAAATCACAAGACACACACACACAAAAAAAAAAAAA [CACACA_site6791]	8.29 ± 0.47
AGTATAAAATAAATGTGTACACAAGAAAATATGTTA [XGTACX_site8381]	9.06 ± 0.42
AAAATATTTTAATGTTGTACATTAATATATTATATA [XGTACX_site2513]	8.12 ± 0.32
ATATATATATGTATGTGTCCACAAGGAGATATATAT [XGTACX_site783]	9.59 ± 0.071
AGTAAATAATAGATCGCATGTAATAACTAGTAGGAA [TGCATGCA_site948]	9.18 ± 0.86
ACAATTGAAGAAATACGTACATAAAGAAAAACTAGT [XGTACX_site820]	9.16 ± 0.51
ATTATAAAGACATATACACACATACGTACATACATA [CACACA_site5893]	8.73 ± 0.38
AACAGATAAAAGGGTACACACATATATACCTGTACA [CACACA_site4285]	8.58 ± 0.28
TGTACATTCGGAGTAAAAAAAAATTTATACAATTAC [CACACA_negctrl_site1451]	8.45 ± 0.44
TACATAAATATATGTGTGCACAATTTCGTATATTTA [GTGCAC_site9859]	8.86 ± 0.31
TGTATTAAATTTTGAACACACAAAATAAAACATATA [CACACA_site1672]	8.56 ± 0.47
TAATAAAAATAAAATTGTACTAATAACATTTCATTA [XGTACX_site3703]	7.89 ± 0.3
TATATAACTGTCTTCAGTACACAATAAATAAAAATA [XGTACX_site8856]	8.64 ± 0.42

Sequence	gcPBM binding intensity (ln)
TTTCAAAAAAATAGCTATATTTATATTAATGCACGA [TGCATGCA_negctrl_site63]	9.72 ± 1
AAAGGTGTATATAATACACACGTGTGATTAAAATTG [CACACA_site8104]	8.73 ± 0.35
AACTTTGAGACATAGTGTACTTACACAATCTTAATA [XGTACX_site3712]	8.32 ± 0.34
ACATTTTTTTTTTTTTTTCTTTTTCTTTTTCTTTTT [CACACA_negctrl_site1295]	8.36 ± 0.67
CATATTTGATACAAGTGTACTTTATTTAAAAATTCT [XGTACX_site8408]	8.37 ± 0.28
AACCTAAGCATTCTTCAAATTATATATGTAAAATGA [CACACA_negctrl_site261]	8.22 ± 0.56
TCGTATCTATTGAGGGTGCCTCTATAATTGATACAA [GTGCAC_site9636]	8.31 ± 0.4
TAATATAATATATGCACACAAATATGTATTTATGTG [CACACA_site5210]	8.32 ± 0.35
GAAAAAATAAAATAAAGTACATAACTATAATAAAAA [XGTACX_site4807]	8.64 ± 0.28
ATATATAAACACTCTTGTACATAATAATGTATATAT [XGTACX_site2451]	8.45 ± 0.31
CTTACACCCATATATACACACATGTATATTTTATAT [CACACA_site4462]	8.82 ± 0.41
TACTCCTCAATATTATGTACATATAATAGTTATAAA [XGTACX_site8551]	8.69 ± 0.38
TGTTTTATACTAAATGAACACACACCCATATATATA [CACACA_site7912]	8.7 ± 0.46
TTATTTATTTATAATAGTACAATTTAATGATCTTCT [XGTACX_site4831]	8.13 ± 0.32
CAATATATTTGATTTACACACTTACAATGTATATAA [CACACA_site2994]	8.45 ± 0.33
CCAACATGCCCACGCACACACAAAAAAAGCATGCAT [CACACA_site4217]	9.19 ± 0.33
AATAATATATATATATATATAATAAAATATAAATAG [CACACA_negctrl_site1515]	8.52 ± 0.37
ATAGAAATATATATATGTACATATAGATAAATCTAT [XGTACX_site7833]	8.32 ± 0.33
ATATGAAATAATAATAGTACATAAAATAATTTTACT [XGTACX_site6964]	8.27 ± 0.28
ATAAATACAGATAACACACACATATATATATATATA [CACACA_site5431]	10.1 ± 0.59
AAAAATAACGTAAATTGTACATGTAAAATTTTCTAT [XGTACX_site7158]	8.47 ± 0.31
ATATAAATTTTTTAGAGTACTAAAATAAAATAATAT [XGTACX_site2118]	8.37 ± 0.41
